# Reference: the supplement of paper PMC3334620
# Over roughly 33,000 sequences, “E-score (-0.5 to 0.5)” has its median near -0.054; the highest 2% begin near 0.39. This is one part of the list.
# Target: Ylr278c (UniProt Q05854)
# Test: PBM E-score (8-mer binding enrichment) (E-score (-0.5 to 0.5)); higher = stronger / more preferred TF binding; most listed sequences are background and not binding sites
# Conditions: protein concentration: 200 nM; construct: GST-DNA-binding domain
# Summary of the method: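 PURExpress in vitro transcription/translation supplied GST-tagged yeast transcription factors, either full-length or DNA-binding domain. Applied at about 100-200 nM to universal all-10-mer Agilent arrays double-stranded by primer extension, the bound protein was detected with fluorescent anti-GST. E-scores, modified Wilcoxon-Mann-Whitney statistics, were given by the Universal PBM Analysis Suite to ungapped eight-base words pooled with their reverse complements after masliner normalisation.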
row,Sequence,PBM E-score
1,ATTACTAA,-0.0856
2,ACCCATTC,-0.02
3,ATACTATG,0.0207
4,ACATGCTG,-0.267
5,CATTTGGA,0.04
6,AGAGTTCA,-0.234
7,AACATATA,0.00185
8,AGGGCTGG,-0.154
9,CTAAGTTC,-0.209
10,CGGGGGGA,-0.0265
11,GACCCGTC,-0.062
12,GGAGATCC,0.38
13,AATGTCTA,-0.289
14,TTGCAAAA,0.0491
15,CACCGACC,0.192
16,CAAGCAAG,-0.129
17,AATGTTAA,-0.0403
18,ACTGCGAT,0.0797
19,AGACCGCA,0.0287
20,AGCTCCAA,-0.207
21,CCTGGCAA,-0.172
22,GGCCTCGA,-0.16
23,ATTACCGC,0.259
24,GTCACTAA,-0.182
25,AGGCGCGA,0.0365

row,Sequence,PBM E-score
1,GCTTCCCC,-0.0315
2,ATCAACCC,0.142
3,TCAAGGGA,-0.109
4,CATTTCCG,0.406
5,AAGGGTGC,-0.101
6,TAGTCTCA,-0.158
7,ACCCCACA,0.0123
8,CAAAAAGA,-0.0543
9,CGTTAGGC,0.00511
10,ACCCAGAG,-0.0923
11,CTACGACA,-0.0581
12,CCCGCCAG,0.177
13,CTCGGAGC,0.431
14,AACCTACT,-0.0251
15,CGTGTCAA,-0.122
16,CAGTCCCG,0.199
17,GCGATTAA,0.055
18,AACTATAT,-0.0181
19,AGTAGCTG,-0.124
20,CGTGCTAG,-0.299
21,GAGGCGTA,-0.0571
22,ATCATCTG,0.0272
23,AAGATTTC,0.12
24,ACCATTTG,-0.00863
25,TCAGACCA,-0.124

row,Sequence,PBM E-score
1,GAACTAAA,0.0635
2,AGCTTGAA,-0.122
3,CCTTATGA,-0.103
4,CCTTTCAG,-0.192
5,GGAGCGCA,0.162
6,CAAGTTAC,0.0544
7,CGCTTCCA,-0.0427
8,GTTTGGAA,-0.0915
9,ATTTTACC,0.226
10,GGACAGAC,0.0479
11,CGCGACAC,0.179
12,ATAGGCGG,0.301
13,CGAGGAAG,0.0261
14,AGTGCGTA,-0.0325
15,GAAGGATC,-0.123
16,ACCACGTA,-0.314
17,CGTGAGCA,-0.0624
18,CAATACCG,0.275
19,ACTTCTCA,-0.222
20,GACAGTGC,0.0683
21,CCTTAACG,0.00319
22,AAATGCGG,0.308
23,CACCACCA,-0.0579
24,ACAATGTG,-0.186
25,GTTTGAAA,-0.0339

row,Sequence,PBM E-score
1,CGCTTACC,0.0277
2,GCCACATA,-0.0623
3,ACATGCGT,-0.171
4,CGACGGAC,0.337
5,GATGTGTA,-0.0743
6,CCATTGGA,-0.0795
7,CTTTGCGC,0.105
8,CATTTCGC,0.107
9,ATCAAGCG,-0.0362
10,AAAATGAA,-0.155
11,GCGCATTA,0.129
12,AGATCTTA,-0.141
13,GTTACTCA,-0.114
14,CTTGCGCA,0.0522
15,CCGACGGC,0.315
16,CGTGATGC,0.073
17,CGGGATGC,0.21
18,AAGGTAAA,0.00542
19,ACCATTAT,-0.0869
20,CGCGTCGC,-0.0249
21,TGACATAA,-0.00924
22,AACAATCT,-0.152
23,TATTAACA,-0.0291
24,AGAAGTGG,-0.0693
25,CACGATGG,-0.224

row,Sequence,PBM E-score
1,AATGCGAG,0.00781
2,GCACCTAA,-0.107
3,AGTCGGTG,0.0664
4,ACGCGAAT,-0.0806
5,GGACTAGA,0.0963
6,ACATGTAT,-0.012
7,CGCAAGCA,0.00834
8,CGCCCTCA,-0.0239
9,AGATGACC,0.00414
10,ATGAAGGC,-0.045
11,CTTAACCA,-0.334
12,TAAACGAA,-0.02
13,ACCGCAGG,0.115
14,AACTTCTT,-0.119
15,CATGTGAC,-0.378
16,AACATAGA,-0.0265
17,CCATATCC,0.139
18,AGGGCGAT,-0.234
19,GCCTTCGC,0.133
20,CGTGCGAA,0.0158
21,ACCCAAAA,-0.181
22,CAAGGCAA,-0.259
23,GGTACGTA,-0.234
24,TATATACA,-0.165
25,ACCCGGCG,0.258

row,Sequence,PBM E-score
1,AGCAGACT,-0.283
2,CTATTTCC,0.249
3,CAGACTGA,-0.166
4,CACACCCC,-0.00534
5,ACATACGT,-0.185
6,ATAGGTCA,-0.115
7,AGGGGGTG,-0.148
8,CGCCTGAA,-0.0702
9,GAATTTAC,0.14
10,ACAATGAC,-0.195
11,ACAGGCTG,-0.38
12,ACGGGAAA,0.236
13,GACAAGGC,0.0854
14,AATAACTG,-0.0254
15,GCTCGAGC,0.164
16,AATCGGAC,0.397
17,CCACTGTA,-0.247
18,ACTGAGCG,-0.265
19,GGCGTGAA,-0.0348
20,CAGCGGCA,-0.0688
21,AAGTCCAC,-0.192
22,GCGTATCA,-0.129
23,ACCAGTGA,-0.225
24,GAATTGAA,0.11
25,CTAGCCTC,-0.225

row,Sequence,PBM E-score
1,CGACTTGA,-0.133
2,TGACAGCA,-0.0319
3,CACACTAG,-0.103
4,ACGACGTG,-0.214
5,GGCTACAA,-0.143
6,ACGAATGA,0.00735
7,GTTCAAGA,-0.0811
8,GCCTACCC,-0.184
9,ATCGGAAA,0.416
10,GCCCTACC,-0.131
11,CCGCCGTC,0.218
12,ATGGAGCA,-0.0944
13,AACTCCTC,0.0657
14,GCGGCATA,0.166
15,TACTTACA,-0.254
16,TAATGAAA,-0.0666
17,AGGACATC,0.0899
18,CAGGCGAG,-0.243
19,ATGGTGGG,-0.0929
20,CGCGCAGA,0.141
21,GGACCCGA,0.261
22,GTGACAAA,-0.0345
23,TAAATACA,-0.0956
24,TCGTGAAA,-0.0818
25,AACTCTCG,-0.0171

row,Sequence,PBM E-score
1,TGTGCTAA,0.223
2,GGACTTTA,0.275
3,AACCTTAG,-0.151
4,CCCCGCCA,0.356
5,AGTATGCG,0.0748
6,CAGTTATG,-0.0878
7,AGGCGTCG,-0.0177
8,GCACCCGA,0.133
9,AACGTGCT,-0.224
10,AAATAATA,0.11
11,AGACTTAT,-0.228
12,ACCAACGG,0.203
13,AGCGGTTG,-0.164
14,CGGCAGAC,0.194
15,AGCAGGGG,-0.0903
16,ATGGTGCC,-0.0823
17,CTGTGCTC,-0.0371
18,GAACTCAA,0.00625
19,GAAAGGGA,-0.0978
20,GCACTAAC,-0.105
21,AGCGGCTG,-0.14
22,AATTTTGT,0.127
23,AGCACGAC,-0.174
24,AATTCAGC,-0.0865
25,ATCCTGGC,-0.167

row,Sequence,PBM E-score
1,CACAGTCC,-0.00317
2,ACCTCATG,-0.349
3,GCCGCAGC,0.203
4,GGAGAATA,0.189
5,CAGAAGCG,0.0377
6,CGTGCGGC,0.163
7,GTTTTAAA,-0.0723
8,GCGGGTGA,0.0824
9,GTGTCCAA,-0.0567
10,GTAATTAC,0.216
11,ACCGTAGC,-0.127
12,GATATTTA,-0.0205
13,CGTCAACC,0.0223
14,TAGTTGCA,-0.0056
15,CAGGGAGG,-0.223
16,CCACGACA,-0.017
17,ACGCTGGA,-0.059
18,CTGTTATC,-0.0896
19,CCACTACG,-0.00618
